Consider 58 molecules from PubChem BioAssay AID463173 (ICCB-Longwood Screening Facility, Harvard Medical School, 2010).

Hit rate of the full screen: of about 52,000 compounds, about 1,700 (3.3%) were called active. Rule as the data show it: active = survival mostly below about 52% (no sharp cut-off); inactive = mostly above about 56%. The list shows a part of the results.

The subject of this test is Wild type. The experiment in a line: S. aureus survival, RN4220 and DeltatarO strains – OD600, teichoic acid synthesis inhibitors, primary screen (AID 463173). The conditions noted are these: S. aureus RN4220 wild type/DeltatarO growth, OD600, 18 h, active compounds read low, screened at 18.75 µg/mL (by protocol).
Regarding `CCc1ccc(NC(=O)CSc2nc(-c3ccc(C)cc3)nc3c2Cc2c(CO)cnc(C)c2O3)cc1`, the survival was inactive: 115%.

For the molecule `CCOC(=O)c1c(NC(=O)c2cc(-c3cccc(Cl)c3)on2)sc(C)c1C`, the survival was inactive: 87%.

`CCc1ccc(-c2nc3cc(NC(=O)c4ccc(C)c(C)c4)ccc3o2)cc1`: the survival was inactive: 137%.

`COc1ccc(S(=O)(=O)n2nc(-c3ccco3)nc2NCc2ccc(C(C)C)cc2)cc1`: the survival was inactive: 97%.

Take `CCOc1ccc(NC(=O)c2nc(S(=O)(=O)Cc3ccccc3F)ncc2Cl)cc1`: the survival is inactive: 44%.

Take `Cc1c(NC(=O)c2cccs2)cccc1-c1nc2cc(Cl)ccc2o1`: the survival is inactive: 60%.

Turning to `CCOc1ccc(C(=O)Nc2ccc(OCc3cc(=O)n4cccc(C)c4n3)cc2)cc1`, the survival is active: 14%.

`O=C(NCCCN1CCN(c2ccccc2F)CC1)c1ccc2nc(CCc3ccccc3)oc2c1`: the survival was inactive: 79%.

For `COc1cccc(NC(=O)Cn2c(=O)n(Cc3ccc(F)cc3)c(=O)c3sc4ccccc4c32)c1`, the survival was inactive: 77%.

In the case of `COc1ccc(S(=O)(=O)NCc2cccn2Cc2cc(C)ccc2C)cc1OC`, the survival was inactive: 82%.

For the molecule `CCc1nnc2c3ccccc3nc(Nc3cc(C)cc(C)c3)n12`, the survival is inactive: 37%.

Regarding `CC(=O)NCCNC(=O)CCCc1nnc2n(CC(C)C)c(=O)c3sccc3n12`, the survival is inactive: 100%.

Turning to `COc1ccc(-c2cc(-c3nc(-c4cc(OC)c(OC)c(OC)c4)no3)[nH]n2)c(OC)c1`, the survival was inactive: 73%.

For `CCOc1ccc(CCNC(=O)c2c(C)oc3ncn(CC(C)C)c(=O)c23)cc1OCC`, the survival is inactive: 77%.

As to `CC(=O)N1CCc2c(sc3c2c(=O)n(-c2ccccc2)c(=O)n3CC(=O)Nc2cc(C)cc(C)c2)C1`, the survival was inactive: 54%.

Consider `Cc1ccc(-n2nc(C(=O)N3CCN(c4ccccc4F)CC3)c(=O)n(C)c2=O)cc1`, for which the survival was inactive: 92%.

Regarding `CCCCCc1ccc(-c2ccc(Br)cc2)nc1`, the survival was active: -3%.

As for `O=C(NCc1ccccc1F)C(=O)NCC(c1ccc2c(c1)OCO2)N1CCOCC1` (stereo not drawn), the survival was inactive: 71%.

Turning to `CC1C(C#N)=C(N)OC2=C1C(=O)CCC2` (stereo not drawn), the survival was inactive: 104%.

For the molecule `Cc1cc(Br)ccc1NC(=O)CSc1c2c(nc3ccccc13)CCC2`, the survival was inactive: 75%.

For `CCc1ccc(NC(=O)CSc2nc(C)c(C(=O)Nc3ccccc3)c(-c3ccc(OC)c(OC)c3)c2C#N)cc1`, the survival was inactive: 85%.

`CCCC1C2CN(Cc3ccccc3)CC=C2C(C#N)=C(N)C1(C#N)C#N` (stereo not drawn): the survival is inactive: 109%.

Regarding `O=C(CCc1ccccc1)Nc1ccccc1`, the survival was inactive: 105%.

Take `CCOc1ccc(CNC(=O)CCc2c(C)nn(-c3ccc(N4CCCCC4)nn3)c2C)cc1`: the survival was inactive: 66%.

With `CSc1ccc(CCNC(=O)c2cc(C)nc3c2c(C)nn3-c2cccc(F)c2)cc1`, the survival is inactive: 75%.

Regarding `CC(C)(C)C(=O)CSc1nc2ccsc2c(=O)n1Cc1ccccc1Cl`, the survival is inactive: 73%.

Consider `COc1cccc(CSc2nc3n(n2)C(c2ccc(C(=O)O)cc2)C(C(=O)Nc2ccccc2)=C(C)N3)c1` (stereo not drawn), for which the survival is inactive: 80%.

Take `O=C(OCc1cc(=O)n2nc(-c3cccs3)sc2n1)c1ccccc1Cl`: the survival was inactive: 75%.

Turning to `Cc1nc2ccccc2c(=O)n1CC(=O)N(C1CCCCC1)C1CCCCC1`, the survival is inactive: 114%.

Take `CCOc1ccccc1NC(=O)CSc1nc2c(oc3ccccc32)c(=O)n1-c1ccc(F)cc1`: the survival was inactive: 92%.

As to `O=S1(=O)CCC(NNC(=S)Nc2ccccc2)C1` (stereo not drawn), the survival is inactive: 95%.

With `COc1ccc(NC(=O)c2cc3cc(C)ccc3[nH]2)cc1`, the survival is inactive: 117%.

Turning to `COc1ccccc1N1CCN(c2ccc(=O)n(CC(=O)NCc3ccc(F)cc3)n2)CC1`, the survival was inactive: 135%.

For `CC1CC(c2ccccc2)n2nc(N)nc2N1` (stereo not drawn), the survival is inactive: 96%.

As for `CSc1ccccc1-c1nnc(NC(=O)c2ccc3c(c2)OCCO3)o1`, the survival is inactive: 123%.

Regarding `O=C(NC1CCCCC1)N1CCc2ccccc2C1`, the survival is inactive: 116%.

As to `Cc1c(C(=O)N2CCCCCC2)c(S(=O)(=O)NCc2ccccc2)c(C)n1C`, the survival was inactive: 68%.

On to `O=C(CSc1nc(=O)n(CCN2CCOCC2)c2c1CCC2)Nc1ccc(Cl)c(Cl)c1`, for which the survival is inactive: 83%.

Turning to `O=C(Nc1ccc(F)c(Cl)c1)Nc1c[nH]c(=O)[nH]c1=O`, the survival was inactive: 80%.

In the case of `COCCN(C(=O)c1ccco1)c1nnc(-c2ccc(F)cc2)s1`, the survival was inactive: 111%.

Take `CC(=O)Nc1ccccc1-c1nc2ccccc2n(CC(=O)Nc2cccc(C)c2C)c1=O`: the survival is inactive: 119%.

For `O=C(Nc1nccs1)c1ccc(N2C(=O)CCC2=O)cc1`, the survival is inactive: 111%.

Take `Cc1ccc2nc(SCc3nc(-c4ccc(Cl)cc4)no3)[nH]c2c1`: the survival was active: -4%.

Regarding `CC(CNC(=O)c1cnn(-c2ccc(F)cc2)c1-n1cccc1)c1ccccc1` (stereo not drawn), the survival was inactive: 79%.

With `O=C(CN1CCC(n2nnc3cc(C(F)(F)F)ccc32)CC1)N1CCc2ccccc21`, the survival was inactive: 99%.

For the molecule `CCOC(=O)c1cc(-c2ccccc2)n(CCC(=O)Nc2ccccc2CC)c1C`, the survival was inactive: 69%.

On to `Cc1cc(C)cc(N2C(=O)CSC23C(=O)N(Cc2c(F)cccc2Cl)c2ccccc23)c1` (stereo not drawn), for which the survival is inactive: 138%.

For `Cc1cc2c(cc1S(=O)(=O)Nc1cccc(Cl)c1C)n(C)c(=O)c(=O)n2C`, the survival was inactive: 81%.

Consider `Cc1cccc2nc(-c3ccccn3)c(Nc3ccc(F)cc3)n12`, for which the survival was active: 4%.

With `Cc1cc(C)c(OCC(=O)O)c(Cl)c1`, the survival was inactive: 121%.

Regarding `COc1ccc(C2CC(=O)N(Cc3ccc(C)cc3)c3c2c(C)nn3-c2nc(C)cc(C)n2)c(OC)c1` (stereo not drawn), the survival was inactive: 120%.

As for `COc1cc(OC)c(OC)cc1CNCc1ccco1`, the survival was inactive: 120%.

In the case of `Cc1cccc(CSc2nc3c([nH]c4ccccc43)c(=O)n2C)c1`, the survival is inactive: 69%.

Regarding `CCCCC12CN3CC(C)(CN(C1)C3c1c[nH]c3ccccc13)C2=O` (stereo not drawn), the survival is inactive: 82%.

Turning to `CCCCC(CC)CNC(=O)Cc1ccc(-n2c(=O)[nH]c3ccccc3c2=O)cc1` (stereo not drawn), the survival was inactive: 94%.

As for `CCOc1ccc(CC(=O)Nc2c(C(=O)c3ccccc3)oc3ccc(Cl)cc23)cc1OCC`, the survival is inactive: 69%.

Take `C/C(CC(O)c1ccc2ccccc2n1)=N/O` (stereo not drawn): the survival is inactive: 105%.

Regarding `CC(=O)N1c2ccc(S(=O)(=O)Nc3ccc(C)c(Cl)c3)cc2CC1C` (stereo not drawn), the survival was inactive: 117%.
